Test results taken from the supplement of paper PMC12217912.
This is one part of the list. The full chains were built here from the parent and the listed change. Values near 0.05 are background.

B1: TEV protease; numbered along this chain (parent)
chain: MGESLFKGPRDYNPISSSICHLTNESDGHTTSLYGIGFGPFIITNKHLFRRNNGTLVVQSLHGVFKVKDTTTLQQHLVDGRDMIIIRMPKDFPPFPQKLKFREPQREERICLVTTNFQTKSMSSMVSDTSCTFPSGDGIFWKHWIQTKDGQCGSPLVSTRDGFIVGIHSASNFTNTNNYFTSVPKNFMELLTNQEAQQWVSGWRLNADSVLWGGHKVFMVKPEEPFQPVKEATQL

Variants of: B1
Assay: raw area under fraction-flipped curve 0-4 h after induction (AUC4h, not background-subtracted), DNA-recorder readout of cleavage of the substrate (dimensionless); higher = more cleavage of the substrate by the protease variant
Conditions: temperature: 34 °C; time window: 0-4 h after rhamnose induction
Experimental: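 In vivo DNA recorder in E. coli TOP10(DE3) ΔrhaA at 34 °C. Each TEVp single-site mutant (parent TEVp 0) is paired with a single-site variant of the 7-mer TEVs (canonical ENLYFQ|S). The substrate sits between flexible linkers in a Bxb1-sfGFP-TEVs-SsrA fusion, so cleavage stabilises Bxb1 and speeds flipping of a recombination array, read by NGS. The value is the raw area under the fraction-flipped curve over 0-4 h after rhamnose induction (AUC4h), with ≥20 reads per time point. It is not background-subtracted; inactive controls average about 0.047.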
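Also: Bxb1 expression induced with 0.2% (w/v) L-rhamnose at OD600 near 0.5, cultures sampled hourly, flipped fraction per protease–substrate barcode pair counted by paired-end Illumina sequencing.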

Row | Variant | area with substrate CNLYFQS | area with substrate FNLYFQS | area with substrate HNLYFQS | area with substrate KNLYFQS | area with substrate LNLYFQS | area with substrate PNLYFQS | area with substrate SNLYFQS | area with substrate TNLYFQS | area with substrate YNLYFQS | area with substrate NNLYFQS | area with substrate WNLYFQS | area with substrate INLYFQS | area with substrate MNLYFQS | area with substrate VNLYFQS | area with substrate GNLYFQS | area with substrate QNLYFQS | area with substrate RNLYFQS
1 | MGESLFKGPRDYNPISSSICHLTNESDGHTTSLYGIGFGPFIITNKHLFRRNNGTLVVQSLHGVFKVKDTTTLQQKLVDGRDMIIIRMPKDFPPFPQKLKFREPQREERICLVTTNFQTKSMSSMVSDTSCTFPSGDGIFWKHWIQTKDGQCGSPLVSTRDGFIVGIHSASNFTNTNNYFTSVPKNFMELLTNQEAQQWVSGWRLNADSVLWGGHKVFMVKPEEPFQPVKEATQL [H76K] | 0.0673 | 0.0528 | 0.0624 | 0.0672 | 0.0655 | 0.0467 | 0.0495 | 0.0561 | 0.0618 | – | – | – | – | – | – | – | –
2 | MGESLFKGPRDYNPISSSICHLTNESDGHTTSLYGIGFGPFIITNKHLFRRNNGTLVVQSLHGVFKVKDTTTLQQVLVDGRDMIIIRMPKDFPPFPQKLKFREPQREERICLVTTNFQTKSMSSMVSDTSCTFPSGDGIFWKHWIQTKDGQCGSPLVSTRDGFIVGIHSASNFTNTNNYFTSVPKNFMELLTNQEAQQWVSGWRLNADSVLWGGHKVFMVKPEEPFQPVKEATQL [H76V] | 0.0776 | 0.069 | – | – | 0.0535 | 0.0687 | 0.0594 | 0.0683 | 0.0703 | 0.0749 | 0.0415 | – | – | – | – | – | –
3 | MGESLFKGPRDYNPISSSICHLTNESDGHTTSLYGIGFGPFIITNKHLFRRNNGTLVVQSLHGVFKVKDTTTLQQHCVDGRDMIIIRMPKDFPPFPQKLKFREPQREERICLVTTNFQTKSMSSMVSDTSCTFPSGDGIFWKHWIQTKDGQCGSPLVSTRDGFIVGIHSASNFTNTNNYFTSVPKNFMELLTNQEAQQWVSGWRLNADSVLWGGHKVFMVKPEEPFQPVKEATQL [L77C] | 0.0689 | 0.0472 | 0.0739 | 0.105 | 0.0638 | – | 0.0595 | 0.0564 | – | 0.0612 | 0.0555 | 0.0509 | 0.0797 | 0.0472 | – | – | –
4 | MGESLFKGPRDYNPISSSICHLTNESDGHTTSLYGIGFGPFIITNKHLFRRNNGTLVVQSLHGVFKVKDTTTLQQHQVDGRDMIIIRMPKDFPPFPQKLKFREPQREERICLVTTNFQTKSMSSMVSDTSCTFPSGDGIFWKHWIQTKDGQCGSPLVSTRDGFIVGIHSASNFTNTNNYFTSVPKNFMELLTNQEAQQWVSGWRLNADSVLWGGHKVFMVKPEEPFQPVKEATQL [L77Q] | 0.0736 | 0.0558 | 0.0561 | 0.0637 | 0.0659 | 0.0765 | 0.0671 | 0.0625 | 0.0591 | – | – | 0.0554 | – | 0.0554 | – | – | –
5 | MGESLFKGPRDYNPISSSICHLTNESDGHTTSLYGIGFGPFIITNKHLFRRNNGTLVVQSLHGVFKVKDTTTLQQHLLDGRDMIIIRMPKDFPPFPQKLKFREPQREERICLVTTNFQTKSMSSMVSDTSCTFPSGDGIFWKHWIQTKDGQCGSPLVSTRDGFIVGIHSASNFTNTNNYFTSVPKNFMELLTNQEAQQWVSGWRLNADSVLWGGHKVFMVKPEEPFQPVKEATQL [V78L] | 0.0716 | 0.08 | 0.0743 | – | – | – | – | 0.0473 | 0.0621 | – | 0.0565 | – | 0.0559 | 0.077 | – | – | –
6 | MGESLFKGPRDYNPISSSICHLTNESDGHTTSLYGIGFGPFIITNKHLFRRNNGTLVVQSLHGVFKVKDTTTLQQHLRDGRDMIIIRMPKDFPPFPQKLKFREPQREERICLVTTNFQTKSMSSMVSDTSCTFPSGDGIFWKHWIQTKDGQCGSPLVSTRDGFIVGIHSASNFTNTNNYFTSVPKNFMELLTNQEAQQWVSGWRLNADSVLWGGHKVFMVKPEEPFQPVKEATQL [V78R] | 0.0537 | – | 0.0497 | – | – | 0.0577 | 0.0458 | 0.054 | – | 0.0587 | – | – | – | 0.0571 | 0.0634 | – | –
7 | MGESLFKGPRDYNPISSSICHLTNESDGHTTSLYGIGFGPFIITNKHLFRRNNGTLVVQSLHGVFKVKDTTTLQQHLVPGRDMIIIRMPKDFPPFPQKLKFREPQREERICLVTTNFQTKSMSSMVSDTSCTFPSGDGIFWKHWIQTKDGQCGSPLVSTRDGFIVGIHSASNFTNTNNYFTSVPKNFMELLTNQEAQQWVSGWRLNADSVLWGGHKVFMVKPEEPFQPVKEATQL [D79P] | 0.0743 | – | – | – | 0.0734 | – | – | 0.0625 | – | – | 0.0564 | – | – | – | – | 0.0689 | –
8 | MGESLFKGPRDYNPISSSICHLTNESDGHTTSLYGIGFGPFIITNKHLFRRNNGTLVVQSLHGVFKVKDTTTLQQHLVDSRDMIIIRMPKDFPPFPQKLKFREPQREERICLVTTNFQTKSMSSMVSDTSCTFPSGDGIFWKHWIQTKDGQCGSPLVSTRDGFIVGIHSASNFTNTNNYFTSVPKNFMELLTNQEAQQWVSGWRLNADSVLWGGHKVFMVKPEEPFQPVKEATQL [G80S] | 0.0611 | – | – | – | 0.063 | – | 0.0711 | – | 0.0635 | 0.0614 | – | 0.0425 | – | – | 0.0699 | – | –
9 | MGESLFKGPRDYNPISSSICHLTNESDGHTTSLYGIGFGPFIITNKHLFRRNNGTLVVQSLHGVFKVKDTTTLQQHLVDGSDMIIIRMPKDFPPFPQKLKFREPQREERICLVTTNFQTKSMSSMVSDTSCTFPSGDGIFWKHWIQTKDGQCGSPLVSTRDGFIVGIHSASNFTNTNNYFTSVPKNFMELLTNQEAQQWVSGWRLNADSVLWGGHKVFMVKPEEPFQPVKEATQL [R81S] | 0.0548 | 0.0615 | 0.0618 | 0.071 | 0.0582 | 0.0603 | 0.0572 | 0.0617 | 0.0653 | – | 0.0746 | – | 0.0645 | – | 0.0603 | 0.0596 | –
10 | MGESLFKGPRDYNPISSSICHLTNESDGHTTSLYGIGFGPFIITNKHLFRRNNGTLVVQSLHGVFKVKDTTTLQQHLVDGWDMIIIRMPKDFPPFPQKLKFREPQREERICLVTTNFQTKSMSSMVSDTSCTFPSGDGIFWKHWIQTKDGQCGSPLVSTRDGFIVGIHSASNFTNTNNYFTSVPKNFMELLTNQEAQQWVSGWRLNADSVLWGGHKVFMVKPEEPFQPVKEATQL [R81W] | 0.0459 | 0.0576 | – | 0.0539 | 0.0693 | 0.0702 | 0.0672 | – | – | 0.0765 | 0.0651 | – | – | – | – | 0.0809 | 0.0719
